For test [1], the target named is endogenous Hrd1 (human (endogenous in Flp-In293)), Q86TM6. The test is described as follows: co-IP; endogenous Hrd1 (anti-Hrd1) or DOX-induced Hrd1-FH (anti-FLAG) from lysates prepared in 1% LMNG; western blot of endogenous cofactors. The following applies: remark: other sources report otherwise. In general terms: Immunoblotting shows a protein as a band on a membrane.

Amino acid sequences for entries named in this document (tags omitted).
UniProt Q86TM6: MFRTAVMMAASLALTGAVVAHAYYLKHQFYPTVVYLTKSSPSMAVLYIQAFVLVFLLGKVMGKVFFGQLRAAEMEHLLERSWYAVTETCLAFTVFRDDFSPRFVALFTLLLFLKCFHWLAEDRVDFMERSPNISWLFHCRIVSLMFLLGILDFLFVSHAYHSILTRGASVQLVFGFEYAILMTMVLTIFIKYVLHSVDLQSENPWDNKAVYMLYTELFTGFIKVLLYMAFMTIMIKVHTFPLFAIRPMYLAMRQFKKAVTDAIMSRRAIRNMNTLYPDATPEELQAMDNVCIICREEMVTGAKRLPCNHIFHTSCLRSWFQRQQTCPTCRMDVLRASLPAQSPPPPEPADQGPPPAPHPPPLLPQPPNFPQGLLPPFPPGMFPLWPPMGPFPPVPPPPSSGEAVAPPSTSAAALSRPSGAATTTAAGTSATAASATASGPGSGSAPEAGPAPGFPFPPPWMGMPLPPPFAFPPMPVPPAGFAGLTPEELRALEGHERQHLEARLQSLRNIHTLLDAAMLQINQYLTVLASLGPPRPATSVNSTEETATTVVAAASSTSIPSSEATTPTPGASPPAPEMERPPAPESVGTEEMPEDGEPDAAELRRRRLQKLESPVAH
UniProt Q9BY78: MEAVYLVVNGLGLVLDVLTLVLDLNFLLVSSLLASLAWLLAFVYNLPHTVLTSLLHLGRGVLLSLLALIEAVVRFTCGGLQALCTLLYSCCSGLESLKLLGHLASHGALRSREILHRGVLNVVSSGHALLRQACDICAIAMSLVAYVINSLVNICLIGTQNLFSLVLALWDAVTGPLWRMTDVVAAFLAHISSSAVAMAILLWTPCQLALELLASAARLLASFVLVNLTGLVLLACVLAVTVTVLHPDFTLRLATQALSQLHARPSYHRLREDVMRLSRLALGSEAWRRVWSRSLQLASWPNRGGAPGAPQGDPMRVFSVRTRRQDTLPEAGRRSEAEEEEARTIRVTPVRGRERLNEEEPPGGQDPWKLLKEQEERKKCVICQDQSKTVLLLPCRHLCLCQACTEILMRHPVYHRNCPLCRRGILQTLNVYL

Test [2] addresses Hrd1-FH (human), Q86TM6. Described as above. The following applies: remark: other sources report otherwise.
The target in test [3] is endogenous Hrd1 (human (endogenous in Flp-In293)) (UniProt Q86TM6). Described as above.
Test [4] deals with Hrd1-FH (human) (UniProt Q86TM6). The test is described as above.
Test [5] concerns the target FH-RNF26WT (human) (UniProt Q9BY78). Nature of the test: co-sedimentation; velocity sedimentation of 1% LMNG lysates of FH-RNF26WT cells on a 5-30% sucrose gradient (39,000 rpm, 16 hr, 4°C); 13 fractions, TCA-precipitated, western blot.

The text below walks through data of paper PMC7332293.

No constants are given. Whether binding was seen depends on the method and setting. Binding seen in cells or lysates may run through a third protein. Some results given as binding are weak or reduced against the parent protein; the word gives no strength.

B1: UBE2J1, Q9Y385 1-318 (enzyme)
chain: METRYNLKSPAVKRLMKEAAELKDPTDHYHAQPLEDNLFEWHFTVRGPPDSDFDGGVYHGRIVLPPEYPMKPPSIILLTANGRFEVGKKICLSISGHHPETWQPSWSIRTALLAIIGFMPTKGEGAIGSLDYTPEERRALAKKSQDFCCEGCGSAMKDVLLPLKSGSDSSQADQEAKELARQISFKAEVNSSGKTISESDLNHSFSLTDLQDDIPTTFQGATASTSYGLQNSSAASFHQPTQPVAKNTSMSPRQRRAQQQSQRRLSTSPDVIQGHQPRDNHTDHGGSAVLIVILTLALAALIFRRIYLANEYIFDFEL
For B1, the binding entry in test [1] and in test [2] was “binds” throughout.

B2: OS-9 (protein, UniProt Q13438 26-667)
chain: GGVGSLNLEELSEMRYGIEILPLPVMGGQSQSSDVVIVSSKYKQRYECRLPAGAIHFQREREEETPAYQGPGIPELLSPMRDAPCLLKTKDWWTYEFCYGRHIQQYHMEDSEIKGEVLYLGYYQSAFDWDDETAKASKQHRLKRYHSQTYGNGSKCDLNGRPREAEVRFLCDEGAGISGDYIDRVDEPLSCSYVLTIRTPRLCPHPLLRPPPSAAPQAILCHPSLQPEEYMAYVQRQADSKQYGDKIIEELQDLGPQVWSETKSGVAPQKMAGASPTKDDSKDSDFWKMLNEPEDQAPGGEEVPAEEQDPSPEAADSASGAPNDFQNNVQVKVIRSPADLIRFIEELKGGTKKGKPNIGQEQPVDDAAEVPQREPEKERGDPERQREMEEEEDEDEDEDEDEDERQLLGEFEKELEGILLPSDRDRLRSEVKAGMERELENIIQETEKELDPDGLKKESERDRAMLALTSTLNKLIKRLEEKQSPELVKKHKKKRVVPKKPPPSPQPTEEDPEHRVRVRVTKLRLGGPNQDLTVLEMKRENPQLKQIEGLVKELLEREGLTAAGKIEIKIVRPWAEGTEEGARWLTDEDTRNLKEIFFNILVPGAEEAQKERQRQKELESNYRRVWGSPGGEGTGDLDEFDF
Consider B2, for which the binding result in test [3] and in test [4] was “binds” throughout.

B3: AUP1 (endogenous) (protein, UniProt Q9Y679 1-410)
chain: MELPSGPGPERLFDSHRLPGDCFLLLVLLLYAPVGFCLLVLRLFLGIHVFLVSCALPDSVLRRFVVRTMCAVLGLVARQEDSGLRDHSVRVLISNHVTPFDHNIVNLLTTCSTPLLNSPPSFVCWSRGFMEMNGRGELVESLKRFCASTRLPPTPLLLFPEEEATNGREGLLRFSSWPFSIQDVVQPLTLQVQRPLVSVTVSDASWVSELLWSLFVPFTVYQVRWLRPVHRQLGEANEEFALRVQQLVAKELGQTGTRLTPADKAEHMKRQRHPRLRPQSAQSSFPPSPGPSPDVQLATLAQRVKEVLPHVPLGVIQRDLAKTGCVDLTITNLLEGAVAFMPEDITKGTQSLPTASASKFPSSGPVTPQPTALTFAKSSWARQESLQERKQALYEYARRRFTERRAQEAD
For the molecule B3, the binding entry in test [5] is given as “binds”.

B4: Herp, Q15011 1-391 (protein)
chain: MESETEPEPVTLLVKSPNQRHRDLELSGDRGWSVGHLKAHLSRVYPERPRPEDQRLIYSGKLLLDHQCLRDLLPKQEKRHVLHLVCNVKSPSKMPEINAKVAESTEEPAGSNRGQYPEDSSSDGLRQREVLRNLSSPGWENISRPEAAQQAFQGLGPGFSGYTPYGWLQLSWFQQIYARQYYMQYLAATAASGAFVPPPSAQEIPVVSAPAPAPIHNQFPAENQPANQNAAPQVVVNPGANQNLRMNAQGGPIVEEDDEINRDWLDWTYSAATFSVFLSILYFYSSLSRFLMVMGATVVMYLHHVGWFPFRPRPVQNFPNDGPPPDVVNQDPNNNLQEGTDPETEDPNHLPPDRDVLDGEQTSPSFMSTAWLVFKTFFASLLPEGPPAIAN
Turning to B4, the binding result in test [1] and in test [2] was “binds” each time.

B5: FAF2/UBXD8 (endogenous) (protein, UniProt Q96CS3 1-445)
chain: MAAPEERDLTQEQTEKLLQFQDLTGIESMDQCRHTLEQHNWNIEAAVQDRLNEQEGVPSVFNPPPSRPLQVNTADHRIYSYVVSRPQPRGLLGWGYYLIMLPFRFTYYTILDIFRFALRFIRPDPRSRVTDPVGDIVSFMHSFEEKYGRAHPVFYQGTYSQALNDAKRELRFLLVYLHGDDHQDSDEFCRNTLCAPEVISLINTRMLFWACSTNKPEGYRVSQALRENTYPFLAMIMLKDRRMTVVGRLEGLIQPDDLINQLTFIMDANQTYLVSERLEREERNQTQVLRQQQDEAYLASLRADQEKERKKREERERKRRKEEEVQQQKLAEERRRQNLQEEKERKLECLPPEPSPDDPESVKIIFKLPNDSRVERRFHFSQSLTVIHDFLFSLKESPEKFQIEANFPRRVLPCIPSEEWPNPPTLQEAGLSHTEVLFVQDLTDE
For the molecule B5, the binding entry in test [5] is reported as “binds”.

B6: FAM8A1 (protein, UniProt Q9UBU6 1-413)
chain: MAEGPEEARGHPPGQDDGGGDHEPVPSLRGPPTTAVPCPRDDPQAEPQAPGRPTAPGLAAAAAADKLEPPRELRKRGEAASGSGAELQEQAGCEAPEAAAPRERPARLSAREYSRQVHEWLWQSYCGYLTWHSGLAAFPAYCSPQPSPQSFPSGGAAVPQAAAPPPPQLGYYNPFYFLSPGAAGPDPRTAAGISTPAPVAGLGPRAPHVQASVRATPVTRVGSAAPSRSPSETGRQAGREYVIPSLAHRFMAEMVDFFILFFIKATIVLSIMHLSGIKDISKFAMHYIIEEIDEDTSMEDLQKMMVVALIYRLLVCFYEIICIWGAGGATPGKFLLGLRVVTCDTSVLIAPSRVLVIPSSNVSITTSTIRALIKNFSIASFFPAFITLLFFQHNRTAYDIVAGTIVVKRNGVR
With B6, the binding entry in test [3] and in test [4] was “binds” throughout.
